Test results taken from the supplement of paper PMC9588766.
Where a name gives a salt, the structure may show the parent alone. Over roughly 1,900 compounds, “cell viability of compound + 1 nM pemigatinib relative to pemigatinib-only (DMSO) wells” has its median near 0.95; the lowest 2% begin near 0.22. The list shows a part of the results.

tested on: PDC-DUC18828; assay: cell viability of compound + 1 nM pemigatinib relative to pemigatinib-only (DMSO) wells (fraction); PDC-DUC18828 is a patient-derived cholangiocarcinoma cell line; higher = less growth inhibition; conditions: first compound 1 µM; pemigatinib concentration 1 nM; 72 h
Procedure: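 Selleck Bioactive library screen in the patient-derived FGFR2 fusion-positive ICC cell line PDC-DUC18828 (500 cells/well). Each compound was tested at 1 uM with 1 nM pemigatinib, in triplicate, for 72 h. Viability was read by CellTiter-Glo and normalised to plate DMSO controls. Value is the paper's averaged normalised viability.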

| Compound | cell viability |
| --- | --- |
| CN(C/C=C/C#CC(C)(C)C)Cc1cccc2ccccc12 [Terbinafine] + CCN1C(=O)N(c2c(F)c(OC)cc(OC)c2F)Cc2cnc3[nH]c(CN4CCOCC4)cc3c21 [pemigatinib] | 1.06 |
| CN(C/C=C/C#CC(C)(C)C)Cc1cccc2ccccc12 [Terbinafine HCl] + CCN1C(=O)N(c2c(F)c(OC)cc(OC)c2F)Cc2cnc3[nH]c(CN4CCOCC4)cc3c21 [pemigatinib] | 0.95 |
| O=c1[nH]cnc2c1ncn2[C@H]1CC[C@@H](CO)O1 [Didanosine] + CCN1C(=O)N(c2c(F)c(OC)cc(OC)c2F)Cc2cnc3[nH]c(CN4CCOCC4)cc3c21 [pemigatinib] | 1.1 |
| Clc1ccc(Nc2nnc(Cc3ccncc3)c3ccccc23)cc1 [Vatalanib (PTK787) 2HCl] + CCN1C(=O)N(c2c(F)c(OC)cc(OC)c2F)Cc2cnc3[nH]c(CN4CCOCC4)cc3c21 [pemigatinib] | 0.986 |
| Cn1cc(-c2ccc3nnc(Sc4ccc5ncccc5c4)n3n2)cn1 + CCN1C(=O)N(c2c(F)c(OC)cc(OC)c2F)Cc2cnc3[nH]c(CN4CCOCC4)cc3c21 [pemigatinib] | 1.02 |
| Cc1cc(O)c2c(c1)C(=O)c1cc(O)cc(O)c1C2=O [Emodin] + CCN1C(=O)N(c2c(F)c(OC)cc(OC)c2F)Cc2cnc3[nH]c(CN4CCOCC4)cc3c21 [pemigatinib] | 1 |
| O=C1NC(=O)/C(=C/c2cccc(C(F)(F)F)c2)S1 + CCN1C(=O)N(c2c(F)c(OC)cc(OC)c2F)Cc2cnc3[nH]c(CN4CCOCC4)cc3c21 [pemigatinib] | 1.03 |
| CN1CCN(C2CCN(C(=O)Nc3cc(Oc4ccc(NC(=O)C5(C(=O)Nc6ccc(F)cc6)CC5)c(F)c4)ccn3)CC2)CC1 [Golvatinib (E7050)] + CCN1C(=O)N(c2c(F)c(OC)cc(OC)c2F)Cc2cnc3[nH]c(CN4CCOCC4)cc3c21 [pemigatinib] | 0.888 |
| C[N+](C)(C)CCO.[Cl-] [Choline Chloride] + CCN1C(=O)N(c2c(F)c(OC)cc(OC)c2F)Cc2cnc3[nH]c(CN4CCOCC4)cc3c21 [pemigatinib] | 1.03 |
| O=c1[nH]cnc2[nH]ncc12 [Allopurinol Sodium] + CCN1C(=O)N(c2c(F)c(OC)cc(OC)c2F)Cc2cnc3[nH]c(CN4CCOCC4)cc3c21 [pemigatinib] | 1.02 |
| CCOC(=O)[C@H](CCc1ccccc1)N[C@@H](C)C(=O)N1Cc2cc(OC)c(OC)cc2C[C@H]1C(=O)O [Moexipril HCl] + CCN1C(=O)N(c2c(F)c(OC)cc(OC)c2F)Cc2cnc3[nH]c(CN4CCOCC4)cc3c21 [pemigatinib] | 0.981 |
| Cn1c(Nc2ccc(C(F)(F)F)cc2)nc2cc(Oc3ccnc(-c4ncc(C(F)(F)F)[nH]4)c3)ccc21 + CCN1C(=O)N(c2c(F)c(OC)cc(OC)c2F)Cc2cnc3[nH]c(CN4CCOCC4)cc3c21 [pemigatinib] | 0.943 |
| COC(=O)C1=C(C)NC(C)=C(C(=O)OC(C)C)C1c1cccc2nonc12 (centres undefined) [Isradipine] + CCN1C(=O)N(c2c(F)c(OC)cc(OC)c2F)Cc2cnc3[nH]c(CN4CCOCC4)cc3c21 [pemigatinib] | 0.992 |
| CC(=O)SCC(Cc1ccccc1)C(=O)NCC(=O)OCc1ccccc1 (centres undefined) [Racecadotril] + CCN1C(=O)N(c2c(F)c(OC)cc(OC)c2F)Cc2cnc3[nH]c(CN4CCOCC4)cc3c21 [pemigatinib] | 0.965 |
| C[C@H](CCC(=O)O)[C@H]1CC[C@H]2[C@@H]3CC[C@@H]4C[C@H](O)CC[C@]4(C)[C@H]3CC[C@]12C [Lithocholic acid] + CCN1C(=O)N(c2c(F)c(OC)cc(OC)c2F)Cc2cnc3[nH]c(CN4CCOCC4)cc3c21 [pemigatinib] | 0.869 |
| O=C(/C=C/N1C[C@H]2C[C@@H]1CN2c1ccccn1)c1ccccc1O + CCN1C(=O)N(c2c(F)c(OC)cc(OC)c2F)Cc2cnc3[nH]c(CN4CCOCC4)cc3c21 [pemigatinib] | 1.06 |
| CCOC(=O)Nc1ccc(NCc2ccc(F)cc2)nc1N [Flupirtine maleate] + CCN1C(=O)N(c2c(F)c(OC)cc(OC)c2F)Cc2cnc3[nH]c(CN4CCOCC4)cc3c21 [pemigatinib] | 0.954 |
| O=C(O)CCCC[C@@H]1SC[C@@H]2NC(=O)N[C@@H]21 [Biotin (Vitamin B7)] + CCN1C(=O)N(c2c(F)c(OC)cc(OC)c2F)Cc2cnc3[nH]c(CN4CCOCC4)cc3c21 [pemigatinib] | 0.904 |
| CCOc1cc(C(C)(C)C)ccc1C1=N[C@@](C)(c2ccc(Cl)cc2)[C@@](C)(c2ccc(Cl)cc2)N1C(=O)N1CCN(CCCS(C)(=O)=O)CC1 + CCN1C(=O)N(c2c(F)c(OC)cc(OC)c2F)Cc2cnc3[nH]c(CN4CCOCC4)cc3c21 [pemigatinib] | 0.892 |
| CC(C)C(=O)Nc1ccc([N+](=O)[O-])c(C(F)(F)F)c1 [Flutamide] + CCN1C(=O)N(c2c(F)c(OC)cc(OC)c2F)Cc2cnc3[nH]c(CN4CCOCC4)cc3c21 [pemigatinib] | 1.05 |
| CC(=O)Oc1cc2c(s1)CCN(C(C(=O)C1CC1)c1ccccc1F)C2 (centres undefined) [Prasugrel] + CCN1C(=O)N(c2c(F)c(OC)cc(OC)c2F)Cc2cnc3[nH]c(CN4CCOCC4)cc3c21 [pemigatinib] | 0.915 |
| Cn1cnc([N+](=O)[O-])c1Sc1ncnc2[nH]cnc12 [Azathioprine] + CCN1C(=O)N(c2c(F)c(OC)cc(OC)c2F)Cc2cnc3[nH]c(CN4CCOCC4)cc3c21 [pemigatinib] | 0.97 |
| S=C(NCc1ccc2c(c1)OCO2)N1CCN(c2ncnc3c2oc2ccccc23)CC1 [Amuvatinib (MP-470)] + CCN1C(=O)N(c2c(F)c(OC)cc(OC)c2F)Cc2cnc3[nH]c(CN4CCOCC4)cc3c21 [pemigatinib] | 0.988 |
| OCCN1C[C@H](O)[C@@H](O)[C@H](O)[C@H]1CO [Miglitol] + CCN1C(=O)N(c2c(F)c(OC)cc(OC)c2F)Cc2cnc3[nH]c(CN4CCOCC4)cc3c21 [pemigatinib] | 0.991 |
